Where a chain is given by its changes, count along the chain named. The list shows a part of the results.
B1: CCUGGCG (DNA:RNA)
RNA: GGGAGACCGGAAUUCAGAUUGUCCCCUGGCGUUAAAUCCCGUCGUAGCCACCA
DNA 1: CAATCTGAATTCCGGTCTCCC
DNA 2: TGGTGGCTACGACGGGATT
B2: UGAACGA (DNA:RNA)
RNA: GGGAGACCGGAAUUCAGAUUGUCCUGAACGAUUAAAUCCCGUCGUAGCCACCA
DNA 1: CAATCTGAATTCCGGTCTCCC
DNA 2: TGGTGGCTACGACGGGATT
B3: CGCCACU (DNA:RNA)
RNA: B1 RNA with C26G, U27C, G28C, G29A, G31U
DNA 1: CAATCTGAATTCCGGTCTCCC
DNA 2: TGGTGGCTACGACGGGATT
B4: AUUGCCA (DNA:RNA)
RNA: B1 RNA with C25A, C26U, G29C, G31A
DNA 1: CAATCTGAATTCCGGTCTCCC
DNA 2: TGGTGGCTACGACGGGATT
B5: GAGGUAC (DNA:RNA)
RNA: B1 RNA with C25G, C26A, U27G, G29U, C30A, G31C
DNA 1: CAATCTGAATTCCGGTCTCCC
DNA 2: TGGTGGCTACGACGGGATT
B6: CGAGGGU (DNA:RNA)
RNA: B1 RNA with C26G, U27A, C30G, G31U
DNA 1: CAATCTGAATTCCGGTCTCCC
DNA 2: TGGTGGCTACGACGGGATT
B7: GCCCAGG (DNA:RNA)
RNA: B1 RNA with C25G, U27C, G28C, G29A, C30G
DNA 1: CAATCTGAATTCCGGTCTCCC
DNA 2: TGGTGGCTACGACGGGATT
B8: ACCCCCA (DNA:RNA)
RNA: B1 RNA with C25A, U27C, G28C, G29C, G31A
DNA 1: CAATCTGAATTCCGGTCTCCC
DNA 2: TGGTGGCTACGACGGGATT
B9: CUAUAUC (DNA:RNA)
RNA: B1 RNA with C26U, U27A, G28U, G29A, C30U, G31C
DNA 1: CAATCTGAATTCCGGTCTCCC
DNA 2: TGGTGGCTACGACGGGATT
B10: CGUUCAC (DNA:RNA)
RNA: B1 RNA with C26G, G28U, G29C, C30A, G31C
DNA 1: CAATCTGAATTCCGGTCTCCC
DNA 2: TGGTGGCTACGACGGGATT
B11: GUUCUAG (DNA:RNA)
RNA: B1 RNA with C25G, C26U, G28C, G29U, C30A
DNA 1: CAATCTGAATTCCGGTCTCCC
DNA 2: TGGTGGCTACGACGGGATT
B12: GCGGGGA (DNA:RNA)
RNA: B1 RNA with C25G, U27G, C30G, G31A
DNA 1: CAATCTGAATTCCGGTCTCCC
DNA 2: TGGTGGCTACGACGGGATT
B13: ACCCCUU (DNA:RNA)
RNA: B1 RNA with C25A, U27C, G28C, G29C, C30U, G31U
DNA 1: CAATCTGAATTCCGGTCTCCC
DNA 2: TGGTGGCTACGACGGGATT
B14: CGUCCUU (DNA:RNA)
RNA: B1 RNA with C26G, G28C, G29C, C30U, G31U
DNA 1: CAATCTGAATTCCGGTCTCCC
DNA 2: TGGTGGCTACGACGGGATT
B15: AAGCGAA (DNA:RNA)
RNA: B1 RNA with C25A, C26A, U27G, G28C, C30A, G31A
DNA 1: CAATCTGAATTCCGGTCTCCC
DNA 2: TGGTGGCTACGACGGGATT
B16: CGUUCCA (DNA:RNA)
RNA: B1 RNA with C26G, G28U, G29C, G31A
DNA 1: CAATCTGAATTCCGGTCTCCC
DNA 2: TGGTGGCTACGACGGGATT
B17: GACACUA (DNA:RNA)
RNA: B2 RNA with U25G, G26A, A27C, G30U
DNA 1: CAATCTGAATTCCGGTCTCCC
DNA 2: TGGTGGCTACGACGGGATT
B18: UGCUACU (DNA:RNA)
RNA: B2 RNA with A27C, A28U, C29A, G30C, A31U
DNA 1: CAATCTGAATTCCGGTCTCCC
DNA 2: TGGTGGCTACGACGGGATT
B19: AUACGAU (DNA:RNA)
RNA: B1 RNA with C25A, C26U, U27A, G28C, C30A, G31U
DNA 1: CAATCTGAATTCCGGTCTCCC
DNA 2: TGGTGGCTACGACGGGATT
B20: CCCUCCU (DNA:RNA)
RNA: B1 RNA with U27C, G28U, G29C, G31U
DNA 1: CAATCTGAATTCCGGTCTCCC
DNA 2: TGGTGGCTACGACGGGATT

Target: T1, RBFOX1 RRM RbFoxmut (Fox-RRM*) (Homo sapiens, UniProt Q9NWB1 109-208, R118D;E147R;N151S;E152T)
T1 sequence: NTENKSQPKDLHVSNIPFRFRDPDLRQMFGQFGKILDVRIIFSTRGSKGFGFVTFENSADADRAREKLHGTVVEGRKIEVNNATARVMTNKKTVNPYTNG
Test: EMSA; HiTS-Eq, 1 nM pool, 10 min; buffer printed only for the single-RNA assays: 10 mM Tris pH 7.5, 150 mM NaCl, 3.4 mM EDTA, 0.001% NP-40, 30 C
Details: tags: His6 N-terminal (pET28a); label: 5' 32P
Summary of the method: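 Purified RbFox RRM, wild type or mutant, was incubated for 10 min in 50 µL with 1 nM of a 5′-radiolabelled RNA pool carrying 7 randomized nucleotides, whose flanks were annealed to DNA oligonucleotides, over a series of increasing protein concentrations. Unbound RNA was resolved on 8% native PAGE, cut out, reverse-transcribed, barcoded by PCR and sequenced on an Illumina HiSeq 2500. Relative association constants were derived from changes in read counts for each RNA species versus the control reaction and normalised to the cognate motif.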

| Binder | binding signal |
| --- | --- |
| B1 | 0.12 KA relative to UGCAUGU |
| B2 | 0.165 KA relative to UGCAUGU |
| B3 | 0.0957 KA relative to UGCAUGU |
| B4 | 0.133 KA relative to UGCAUGU |
| B5 | 0.0925 KA relative to UGCAUGU |
| B6 | 0.0907 KA relative to UGCAUGU |
| B7 | 0.0824 KA relative to UGCAUGU |
| B8 | 0.0825 KA relative to UGCAUGU |
| B9 | 0.0777 KA relative to UGCAUGU |
| B10 | 0.0955 KA relative to UGCAUGU |
| B11 | 0.111 KA relative to UGCAUGU |
| B12 | 0.0917 KA relative to UGCAUGU |
| B13 | 0.0758 KA relative to UGCAUGU |
| B14 | 0.0862 KA relative to UGCAUGU |
| B15 | 0.104 KA relative to UGCAUGU |
| B16 | 0.0597 KA relative to UGCAUGU |
| B17 | 0.0981 KA relative to UGCAUGU |
| B18 | 0.135 KA relative to UGCAUGU |
| B19 | 0.07 KA relative to UGCAUGU |
| B20 | 0.0815 KA relative to UGCAUGU |

— article PMC9911399, “Two distinct binding modes provide the RNA-binding protein RbFox with extraordinary sequence specificity”
